{"source": "PubChem BioAssay AID504332", "about": "(National Center for Advancing Translational Sciences (NCATS), 2011)", "note": "Out of some 350,000 compounds screened, about 31,000 (8.9%) were called active. Inconclusive means that the source gave no clear call. Such entries were picked first, then a sample of the others. The call rests on the fitted dose curve; in most records, active means well fitted inhibition curve with a large enough effect; inconclusive means small, poorly fitted or top-dose-only effect; inactive means no such curve, though single readings can be large or run the other way. Potencies of inconclusive entries are doubtful fits and often do not repeat. On the % scale 0 is the no-effect control and ±100 the full control effect; potency means the concentration at half of the fitted maximal effect; tags describe the fitted curve by direction and shape."}
{"target": "Histone-lysine N-methyltransferase EHMT2 (Homo sapiens) (UniProt Q96KQ7)", "sequence (Q96KQ7 whole entry, looked up)": "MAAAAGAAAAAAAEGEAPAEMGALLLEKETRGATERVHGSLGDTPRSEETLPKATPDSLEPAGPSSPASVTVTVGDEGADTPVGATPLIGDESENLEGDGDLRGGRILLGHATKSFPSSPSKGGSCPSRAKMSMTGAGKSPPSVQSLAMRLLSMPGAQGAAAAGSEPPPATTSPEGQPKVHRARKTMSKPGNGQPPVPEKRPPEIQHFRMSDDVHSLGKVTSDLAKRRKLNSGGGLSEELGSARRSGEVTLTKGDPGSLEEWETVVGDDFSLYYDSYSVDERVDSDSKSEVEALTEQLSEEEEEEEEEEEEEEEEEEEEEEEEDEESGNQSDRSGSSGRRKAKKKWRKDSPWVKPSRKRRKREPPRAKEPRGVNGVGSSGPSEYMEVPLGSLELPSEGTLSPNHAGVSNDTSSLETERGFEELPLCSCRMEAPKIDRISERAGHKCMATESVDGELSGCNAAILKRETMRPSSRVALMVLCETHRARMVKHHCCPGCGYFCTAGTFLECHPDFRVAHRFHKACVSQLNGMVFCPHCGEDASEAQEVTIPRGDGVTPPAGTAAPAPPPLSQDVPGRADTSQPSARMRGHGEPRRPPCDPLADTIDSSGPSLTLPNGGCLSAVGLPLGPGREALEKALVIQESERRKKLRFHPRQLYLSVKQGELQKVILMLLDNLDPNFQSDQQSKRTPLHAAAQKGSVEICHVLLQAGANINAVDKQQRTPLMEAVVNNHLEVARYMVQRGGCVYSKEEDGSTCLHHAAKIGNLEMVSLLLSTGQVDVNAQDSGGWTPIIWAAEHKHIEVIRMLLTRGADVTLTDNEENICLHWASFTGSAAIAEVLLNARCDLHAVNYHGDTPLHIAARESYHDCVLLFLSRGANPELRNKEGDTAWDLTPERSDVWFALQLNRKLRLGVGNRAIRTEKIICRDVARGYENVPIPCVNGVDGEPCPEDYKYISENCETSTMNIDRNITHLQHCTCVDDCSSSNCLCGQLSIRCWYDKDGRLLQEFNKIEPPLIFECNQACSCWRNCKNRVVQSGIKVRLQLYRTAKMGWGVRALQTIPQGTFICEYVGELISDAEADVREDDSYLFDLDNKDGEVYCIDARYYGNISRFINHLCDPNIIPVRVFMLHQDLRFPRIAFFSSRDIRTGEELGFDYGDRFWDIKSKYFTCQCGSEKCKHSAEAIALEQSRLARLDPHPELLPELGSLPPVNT", "test": "qHTS Assay for Inhibitors of Histone Lysine Methyltransferase G9a; further: nearly all actives have a fitted effect of over 75% in size", "conditions": "G9a H3K9 monomethylation, AlphaScreen, 2 h; activity, negative = inhibition: at 59 µM (top of the series) unless noted", "outline": "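Compounds were preincubated with 20 nM G9a for 15 min, after which biotinylated H3K9 peptide (500 nM) and SAM (20 uM) started a 2 h room-temperature reaction. Monomethylated product was quantified by antibody-based AlphaScreen chemiluminescence.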"}
{"smiles": "COc1cccc(N(CC(=O)NCc2cccnc2)S(C)(=O)=O)c1", "Potency": "inconclusive: 56.2 µM [inhibitor, single point]"}
{"smiles": "Cn1c(=O)c2c(nc(N3CCN(c4ccccn4)CC3)n2Cc2ccc(Cl)cc2Cl)n(C)c1=O", "Potency": "inconclusive: 79.4 µM [inhibitor, partial curve, poor fit]"}
{"smiles": "CC(=O)Oc1ccc(/C=C2/SC(=S)N(Cc3ccccc3)C2=O)cc1", "Potency": "inconclusive: 56.2 µM [inhibitor, single point]"}
{"smiles": "OCCN1CCN(CC(O)COc2ccc(Cl)cc2)CC1", "note": "(stereo not given)", "Potency": "active: 50.1 µM"}
{"smiles": "Cc1ccc(C)c(NC(=O)CCc2ccc(S(=O)(=O)NC3CCCCC3)cc2)c1", "activity, negative = inhibition": "inactive: 5.26% [at 102 µM]"}
{"smiles": "Cc1c(Nc2scc(-c3ccccc3)[n+]2-c2ccccc2)c(=O)n(-c2ccccc2)n1C", "Potency": "active: 28.2 µM"}
{"smiles": "O=C(NC1CCS(=O)(=O)C1)C1CCCCN1S(=O)(=O)c1ccc(Cl)cc1", "note": "(stereo not given)", "Potency": "active: 28.2 µM"}
{"smiles": "C/C(CCC(=O)OC[C@H]1O[C@H](C#Cc2ccccc2)C=C[C@@H]1Oc1ccc(C)cc1)=N\\O[C@@H](C)CN1CCCCc2nc(C)c(C)cc21", "Potency": "active: 35.5 µM"}
{"smiles": "COc1ccnc(CN(C)C(=O)C2CCC(=O)N(CCN(C)C)C2)c1", "note": "(stereo not given)", "Potency": "inconclusive: 89.1 µM [inhibitor, single point]"}
{"smiles": "CCN(C(=O)c1ccc2c(=O)n3c(nc2c1)CCCCC3)c1cc(C)ccc1C", "activity, negative = inhibition": "inactive: 0.0633%"}
{"smiles": "CC(C)c1cc(CN2CCOCC2)cc(C(C)C)c1O", "Potency": "inconclusive: 39.8 µM [inhibitor, single point]"}
{"smiles": "COc1ccc(/C=N/NC(=O)c2ccc(O)cc2O)cc1CSc1ccccn1", "Potency": "active: 50.1 µM"}
{"smiles": "CCOC(=O)c1c(C)[nH]c(-c2csc(N)n2)c1C", "Potency": "active: 28.2 µM"}
{"smiles": "Cc1ccc(C(=O)N/C(=C/c2cccnc2)C(=O)N2CCCCCC2)cc1", "Potency": "inconclusive: 4.47 µM [inhibitor, partial curve, poor fit]"}
{"smiles": "O=C(O)c1ccccc1N/N=C/c1c(Sc2nnnn2-c2ccccc2)nc2ccccn2c1=O", "Potency": "active: 39.8 µM"}
{"smiles": "Cc1ccc(C)c(N)c1", "activity, negative = inhibition": "inactive: -16.4% [at 0.501 µM]"}
{"smiles": "C/C(CC(=O)NCc1ccc(F)cc1)=N\\NC(N)=S", "Potency": "inconclusive: 15.8 µM [inhibitor, full curve]"}
{"smiles": "Cc1ccc(C(=O)Nc2nc(C)c(C)s2)o1", "Potency": "inconclusive: 31.6 µM [inhibitor, single point]"}
{"smiles": "O=C1COc2ccc(-c3cc(-c4ccc(F)cc4)c4c(n3)-c3ccccc3OC4)cc2N1", "activity, negative = inhibition": "inactive: 10.9%"}
{"smiles": "C[N+](C)(C)CCNC(=O)c1cc[n+](Cc2ccccc2)c(/C=N/O)c1", "Potency": "active: 10 µM"}
